This note sets out measurements from PubChem BioAssay AID1508624 (National Center for Advancing Translational Sciences (NCATS), 2021).

SMILES strings stand for the structures. Among all 48,000 compounds or so, about 120 (0.25%) were called active. Not shown: some 4% with an inconclusive outcome. Calls follow the shape of the dose curve; as a rule, active = well fitted activation curve with a large enough effect; inconclusive = small, poorly fitted or top-dose-only effect, or another doubt; inactive = no such curve, though single readings can be large or run the other way. Some of the results follow.

This assay in a line: Primary qHTS for Identification of Small Molecule Activators of Huntingtin-Antisense Promoter Activity. Also: nearly all actives have a fitted effect of over 55% in size. As to conditions: HEK293 HTT-AS promoter firefly luciferase reporter, 24 h; series mostly up to 57.5 µM; activity change, positive = activation: at the top concentration. The procedure, abridged: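 Quantitative HTS used concentration series of up to 57.5 uM final on HEK293 luciferase reporter cells, 24 h at 37 degrees C. Readout was Dual-Glo firefly luminescence.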
Take `CCOC(=O)c1ccc(NC(=O)C2CCCN(c3ccc(Sc4ccc(C)cc4)nn3)C2)cc1` (centres undefined): the “activity change, positive = activation” value is inactive: -28.4%. The value for `CC(C)c1nc2ccc(C(=O)NCCCN3CCN(c4ccccc4F)CC3)cc2o1` was inactive: -18.9%. The value for `COC(=O)c1ccc(-n2nnc(-c3nc(-c4ccc5c(c4)OCO5)no3)c2C)cc1` was inactive: -11.1%.

For `CCN(C(=O)CN(C)S(=O)(=O)c1ccc2c(c1)c(=O)n(C)c(=O)n2C)c1ccc(OC)cc1`, the “activity change, positive = activation” value was inactive: -16.3%. Under `CC(=O)NCCNc1nc2c(S(=O)(=O)c3ccc(C)c(C)c3)nnn2c2ccc(Cl)cc12` stands inactive: 16%; under `Cc1cc(Br)ccc1NC(=O)CCS(=O)(=O)c1cccc2nsnc12`, inactive: -30.8%.

In the case of `Cc1ccc(C(C)C)c(OCC(=O)Nc2ccc(S(=O)(=O)Nc3onc(C)c3C)cc2)c1`, the “activity change, positive = activation” value is inactive: -19.9%. Under `N#Cc1ccc(CN2C(=O)c3ccccc3Sc3ccc(C(=O)OCc4ccco4)cc32)cc1` stands inactive: -0.679%; under `CCOc1ccc2nc(NC(=O)CS(=O)(=O)c3ccc(Cl)cc3)sc2c1`, inactive: -4.65%. Under `Cc1ccc(C2c3c(oc4ccccc4c3=O)C(=O)N2c2ccc(C)cn2)cc1` (centres undefined) stands inactive: -6.19%; under `Cc1ccc(NC(=O)Nc2nnc(N3CCCC3)s2)c(C)c1`, inactive: 21%; under `Cc1ccc(CNC(=O)Cc2coc3cc(C)cc(C)c23)cc1`, inactive: -14.7%.

As for `CCCCN(C)C(=O)C1CCCN(c2ncnc3onc(-c4ccc(F)cc4)c23)C1` (centres undefined), the “activity change, positive = activation” value was inactive: -16.5%.

For `Cc1cccc(N2CCN(C(=O)CSCc3ccc(F)cc3)CC2)c1C`, the “activity change, positive = activation” value is inactive: 6.61%.

For the molecule `CCN(CC)S(=O)(=O)c1ccc2c(c1)c(=O)c(C(=O)NCc1ccccc1)cn2C`, the “activity change, positive = activation” value was inactive: -15.8%. Under `O=C(NCc1ccccc1)c1ccc(NC(=O)c2nsc3ccccc23)cc1` stands inactive: -35.1%; under `COc1ccccc1CNC(=O)c1ccc(CS(=O)(=O)c2ccccc2C)o1`, inactive: -18.7%. Consider `COc1ccc(CNC(=O)CCC(=O)N2CC3CCCN3c3ccccc32)cc1` (centres undefined), for which the “activity change, positive = activation” value was inactive: -13.6%. Under `CC(=O)N1CCCc2cc(S(=O)(=O)N3CCC(C(=O)NCc4ccc(N(C)C)cc4)CC3)ccc21` stands inactive: -28.3%.

Take `COc1cc(CN(CC2CCCO2)C(=O)c2ccc(F)cc2)cc(OC)c1OC` (centres undefined): the “activity change, positive = activation” value was inactive: -6.56%. Under `CCCNC(=O)c1ccc(-n2c(-c3ccccc3)cc3c2CCCCC3)cc1` stands inactive: -0.686%; under `CCOc1cccc(CC(=O)Nc2ccc3nc(N4CCCCC4)cc(C)c3c2)c1OCC`, inactive: -17.9%; under `CCCCNc1nc2c(S(=O)(=O)c3ccc(C)c(C)c3)nnn2c2ccsc12`, inactive: -30.2%. Under `COc1cc(Nc2ncc3c(n2)CCN(Cc2cc(Br)cs2)C3)cc(OC)c1` stands inactive: -7.71%; under `COC(=O)c1ccccc1NC(=O)c1ccc2c(c1)CCN2S(C)(=O)=O`, inactive: -0.288%; under `Cc1cc(Nc2ccc(F)cc2)n2c(nc3ccccc32)c1C#N`, inactive: -30.5%.

Take `Cc1ccc(CSc2nc3c([nH]c4ccccc43)c(=O)n2C)cc1`: the “activity change, positive = activation” value is inactive: -6.67%.

For the molecule `Cc1c(-c2nc(-c3ccccc3)no2)nnn1-c1cccc(C(F)(F)F)c1`, the “activity change, positive = activation” value is inactive: 16.3%. The value for `COc1ccccc1CNC(=O)c1ccc2c(c1)nc(C)n2-c1ccccc1OC` was inactive: -5.19%; that for `Cc1nn2c(-c3ccco3)ccnc2c1-c1ccc(F)cc1` was inactive: 24.7%. The value for `Cc1nc2ccccn2c(=O)c1NC(=O)c1ccc(C(F)(F)F)cc1` was inactive: 11.9%; that for `COc1ccccc1NC(=O)CN1CCCN(S(=O)(=O)c2ccc(Br)cc2)CC1` was inactive: -33%; that for `COc1ccc(NC(=O)c2cccn2-c2nnc(N3CCCCC3)s2)cc1Cl` was inactive: -19.7%.

For `CCOc1ccccc1OCCN[C@H](C)Cc1ccc(OC)c(S(N)(=O)=O)c1`, the “activity change, positive = activation” value was inactive: -4.89%.

On to `Cc1ccc(NC(=O)Cn2c(=O)n(CCCCC(=O)NCc3ccccc3Cl)c(=O)c3ccccc32)cc1C`, for which the “activity change, positive = activation” value was inactive: -11.9%. For the molecule `CCOc1ccc(NC(=O)Cn2c(C)cc3ccccc3c2=O)cc1`, the “activity change, positive = activation” value is inactive: -4.83%. Under `Cc1ccc(-c2nnc(C3CCN(S(=O)(=O)c4ccc(C)c(C)c4)CC3)o2)cc1` stands inactive: -10.1%. As for `CCOc1ccccc1NC(=O)CN1C(=O)CC(c2ccc(OC)c(OC)c2)Sc2ccccc21` (centres undefined), the “activity change, positive = activation” value was inactive: -30%.

Consider `CCCCOC(=O)c1ccc(NC(=O)CSc2nc3c(c(=O)[nH]2)CCCC3)cc1`, for which the “activity change, positive = activation” value is inactive: -5.96%. The value for `Cn1c(-n2cccc2)c(-c2c(-c3ccccc3)[nH]c3c2c(=O)n(C)c(=O)n3C)c(=O)n(C)c1=O` was inactive: -12%; that for `CCN1CCOC(=O)C1CC(=O)Nc1cc(C)cc(C)c1` (centres undefined) was inactive: -28.2%; that for `Cc1ccccc1CN1C(=O)c2ccccc2Sc2ccc(C(=O)NC(C)c3ccccc3)cc21` (centres undefined) was inactive: -7.78%.

In the case of `Cc1ccc(N2C(=O)CCSC23C(=O)N(Cc2ccccc2)c2ccccc23)cc1F` (centres undefined), the “activity change, positive = activation” value is inactive: -41.3%. Under `O=C(NCc1ccccc1)c1nn(-c2ccccc2)nc1CO` stands inactive: -15.9%; under `COc1ccc(OC)c(/C=C(/C#N)c2nc(-c3ccc(-c4ccccc4)cc3)cs2)c1`, inactive: -5.95%; under `Cc1ccc(CNC(=O)Cn2c(=O)n(-c3ccc(Cl)cc3)c(=O)c3c(C)c(C)sc32)cc1`, inactive: 16.4%. Under `O=C(NCc1ccc(F)cc1)c1cc2c(=O)n3ccccc3nc2s1` stands inactive: 27%. Under `Cc1cc(C)cc(NS(=O)(=O)c2ccc3[nH]cc(C(=O)N(C)Cc4ccccc4)c(=O)c3c2)c1` stands inactive: -14.7%; under `Cc1[nH]c2ccccc2c1C1N2CC3(C)CN1CC(C)(C2)C3=O` (centres undefined), inactive: -6.38%.

For `O=C(Nc1ccc(Br)cc1F)N1CCC(CN2CCCC2)CC1`, the “activity change, positive = activation” value is inactive: -11.5%. Under `Cc1nn(C)c2c1c(C(F)(F)F)cc(=O)n2C(C)C(=O)NCc1ccc(Cl)cc1` (centres undefined) stands inactive: -10.3%; under `CC1=C(C(=O)OCc2ccccc2)C(c2cccc(Cl)c2Cl)CC(=O)N1` (centres undefined), inactive: 0.0265% [at 11.5 µM, percent change from vehicle, -100% = no light]. Under `O=S(=O)(O)CCS` stands “inactive”; under `Cc1cccc(CNC(=O)CSCc2cnn(-c3ccccc3)c2-n2cccc2)c1`, inactive: -13.5%; under `CCOC(=O)c1ccc(NS(=O)(=O)c2cc(-c3onc(C)c3C)ccc2C)cc1`, inactive: -25.7%. The value for `COc1cc(OC)c(C2Nc3c(C)cccc3-c3cc(C)nn32)cc1OC` (centres undefined) was inactive: -17.8%. With `CC1(C)SCCN(S(=O)(=O)c2ccc(OCC#CCO)cc2)[C@@H]1C(=O)NO`, the “activity change, positive = activation” value was inactive: -2.34%. The value for `CCN1C(=O)c2ccccc2S(=O)c2ccc(C(=O)N3CCN(c4cccc(C)c4)C(C)C3)cc21` (centres undefined) was inactive: -36.1%; that for `CC1=C(c2ccc(C)cc2)S(=O)(=O)NC1=NCc1cccc(F)c1` was inactive: -8.67%. Under `O=C(O)c1ccc(-n2c(/C=C\c3ccc(O)cc3)nc3ccccc3c2=O)cc1` stands inactive: -18.5%; under `COc1ccc(/C=C(\C#N)c2nc(-c3cc4c(ccc5ccccc54)oc3=O)cs2)cc1O`, inactive: -2.5%; under `Cc1ccc(C2=Nc3ccccc3N(CC(=O)NCc3ccc(F)cc3)C(=O)C2)cc1C`, inactive: 21.7%. The value for `CCOC(=O)c1ccccc1NC(=O)c1sc2ncn(Cc3cccc(F)c3)c(=O)c2c1C` was inactive: -5.05%.

In the case of `COc1ccc(OC)c(S(=O)(=O)NCc2cccn2Cc2cccc(C)c2)c1`, the “activity change, positive = activation” value is inactive: -17%. The value for `CC1=C(C(=O)Nc2cccnc2)C(c2ccc(Cl)cc2)n2nc(-c3ccccc3)nc2N1` (centres undefined) was inactive: -23.7%. Under `Cc1ccc(C)c(NC(=O)CSc2c3c(nc4ccc(Cl)cc24)CCCC3)c1` stands inactive: -31.1%; under `COc1cn(CC(=O)Nc2cccc(C)c2C)c(CN2CCCCC2)cc1=O`, inactive: -2.81%; under `Cn1c(=O)c2c(nc3n(-c4ccc(O)cc4)c(-c4ccc(Br)cc4)cn23)n(C)c1=O`, inactive: -6.4%.

As for `COc1ccc(C(=O)Nc2cccc(OCc3cc(=O)n4c5c(sc4n3)CCCC5)c2)cc1`, the “activity change, positive = activation” value was inactive: -6.56%. Under `CCn1cc(C(=O)O)c(=O)c2cnc(N3CCCC3)nc21` stands inactive: -11% [at 11.5 µM, percent change from vehicle, -100% = no light]; under `COc1ccc(OCc2nc3c4c(-c5ccccc5)c(-c5ccccc5)oc4ncn3n2)cc1`, inactive: -4.49%; under `COc1cccc(C(=O)c2cn(CC(=O)NCc3ccccc3)c3nc(C)ccc3c2=O)c1`, inactive: -18.2%. The value for `COC(=O)c1sc(NC(=O)/C=C/c2ccc(OC)c(OC)c2)c(C(=O)OC)c1C` was inactive: -1.59%; that for `COc1ccc(CNC(=O)CSc2nc3ccccc3nc2Cc2ccccc2OC)cc1` was inactive: -12.4%. The value for `CC(C)NC(=O)CCCN1C(=O)CCn2nc(-c3cccn3C)cc21` was inactive: 5.72%. With `CCN1CCN(c2cc3c(cc2F)c(=O)c(S(=O)(=O)c2ccccc2)cn3C)CC1`, the “activity change, positive = activation” value was inactive: 17.6%. As for `COc1ccccc1NC(=O)CSc1nc2ccccc2c2nc(-c3ccccc3)nn12`, the “activity change, positive = activation” value is inactive: 3.31%.

On to `Cc1sc2ncn(CC(=O)N3CCN(c4ccc(F)cc4)CC3)c(=O)c2c1S(=O)(=O)N1CCC(C)CC1`, for which the “activity change, positive = activation” value was inactive: -1.66%. Under `Cc1ccc(CNC(=O)Cn2c(=O)cc(C(F)(F)F)c3c(C)nn(C)c32)cc1` stands inactive: -10.4%; under `COC(=O)C1=C(c2ccccc2)c2ccccc2S(=O)(=O)N1CC(=O)Nc1ccc(F)c(F)c1`, inactive: -43.1%; under `CC1CCC(C(=O)N(c2cc(C#CC(C)(C)C)sc2C(=O)O)C2CCC(O)CC2)CC1` (centres undefined), inactive: -47.3%. The value for `CCOc1ccc(NC(=O)CN(c2ccc(CC)cc2)S(=O)(=O)c2c(C)noc2C)cc1` was inactive: -6.95%; that for `Cc1ccc(CNC(=O)C2CCN(S(=O)(=O)c3c(C)noc3/C=C/c3cccs3)CC2)cc1` was inactive: -7.28%. The value for `O=C(CCS(=O)(=O)c1cc2c(cc1Cl)NC(=O)CO2)NCc1ccccc1Cl` was inactive: -6.01%. As to `CC(C)Oc1ccc(CNC(=O)c2ccc(CN3CC(=O)N4CCCCC4C3=O)cc2)cc1` (centres undefined), the “activity change, positive = activation” value was inactive: -16%.

For `Oc1c(C(c2ccc(Cl)cc2Cl)N2CCN(c3ccccc3)CC2)sc2nc(-c3ccco3)nn12` (centres undefined), the “activity change, positive = activation” value is inactive: -13%. Take `O=C(NCc1cccc(Cl)c1)c1ccc(NC(=O)N2CC3CCCN3c3ccccc32)cc1` (centres undefined): the “activity change, positive = activation” value is inactive: -39.2%.

Regarding `CSc1ncc(C(=O)NCc2cccc(F)c2)c(-c2ccccc2)n1`, the “activity change, positive = activation” value is inactive: -22.2%. Under `COc1ccc(NC(=O)CN2CCCN(Cc3ccc(Cl)cc3)S2(=O)=O)cc1Cl` stands inactive: -39.8%.

For `CCN1c2ccccc2-c2nc(SCC(=O)NCc3ccc(C)cc3)ncc2S1(=O)=O`, the “activity change, positive = activation” value is inactive: 2.11%. The value for `COc1ccc(CNC(=O)c2cnc3sc(N4CCCCCC4)nn3c2=O)cc1` was inactive: -1.19%. The value for `CCOC(=O)c1cnc2ccccc2c1NCCc1ccc(OC)c(OC)c1` was inactive: -16.9%. The value for `CCOc1ccc(NC(=O)NCCc2c(C)nn(C)c2C)cc1` was inactive: 7.43%; that for `CC1CCc2nn(CC(=O)Nc3ccccc3Cl)cc2C1` (centres undefined) was inactive: 9.02%.
